Like-named read-outs stand apart in the source and are kept apart here. Bounds are passed on as bounds.

In this experiment the target is Syk catalytic domain (aa 356-635 with a C-terminal His-tag) (Homo sapiens, UniProt P43405). Kind of experiment: In vitro Syk kinase activity by trFRET (Syk catalytic domain).
Setting [1] is: Syk IC50, Syk catalytic domain (aa 356-635), trFRET, 0.001 mM ATP.
The mark [2] stands for this setting: Syk catalytic domain (aa 356-635), trFRET, 0.001 mM ATP, read-out: Syk IC50.

`C[C@@H]1Cc2ccc(Nc3nc(NC4CC4)c4occc4n3)cc2NC1=O` [(R)-7-(4-(cyclopropylamino)furo[3,2-d]pyrimidin-2-ylamino)-3-methyl-3,4-dihydroquinolin-2(1H)-one] yielded an IC50 under setting [1] of under 100 nM.

In turn, `C[C@H]1Cc2ccc(Nc3nc(NC4CC4)c4occc4n3)cc2NC1=O` [(S)-7-(4-(cyclopropylamino)furo[3,2-d]pyrimidin-2-ylamino)-3-methyl-3,4-dihydroquinolin-2(1H)-one] gave an IC50 under setting [1] of under 100 nM. Compound `NCC1CCN(c2nc(Nc3ccc4cn[nH]c4c3)nc3ccoc23)C1` (stereo not shown) [AG.1.1] returned an IC50 (Syk IC50, class symbols A-D) of 100 to 1000 nM. The same measure, in the same setting: the value for `Cc1n[nH]c2cc(Nc3nc(NC4CCc5cn[nH]c5C4)c4occc4n3)ccc12` (stereo not shown) [AK.1.1] was 100 to 1000 nM. As for `CN1CCN(c2ccc(Nc3nc(NC4CC4)c4occc4n3)cc2Cl)CC1` [B.1, N^2-(3-Chloro-4-(4-methylpiperazin-1-yl)phenyl)-N^4-cyclopropylfuro[3,2-d]pyrimidine-2,4-diamine], under setting [1], the half-maximal inhibitory concentration (IC50) was 100 to 1000 nM. Still for that read-out and setting: in the case of `Clc1cc(Nc2nc(NC3CC3)c3occc3n2)ccc1N1CCOCC1` [B.1.1] it was under 100 nM; in that of `NS(=O)(=O)c1ccc(Nc2nc(NC3CC3)c3occc3n2)cc1` [B.1.2], 100 to 1000 nM; in that of `CCCNC(=O)c1ccc(Nc2nc(NC3CC3)c3occc3n2)cc1` [B.1.3], 100 to 1000 nM. On the same count and under the same terms, the value for `O=S1(=O)Cc2ccc(Nc3nc(NC4CC4)c4occc4n3)cc2C1` [B.1.4] was 100 to 1000 nM; that for `c1cc2nc(Nc3ccc(CN4CCOCC4)cc3)nc(NC3CC3)c2o1` [B.1.5] was 100 to 1000 nM.

Regarding `CC(=O)N1CCN(c2ccc(Nc3nc(NC4CC4)c4occc4n3)cc2)CC1` [B.1.6], under setting [1], the IC50 lay within 100 to 1000 nM.

In turn, `O=S1(=O)NCc2ccc(Nc3nc(NC4CC4)c4occc4n3)cc21` [B.1.7] returned an IC50 under setting [1] of 1000 to 10000 nM. The compound `O=C1NS(=O)(=O)c2cc(Nc3nc(NC4CC4)c4occc4n3)ccc21` [B.1.8] registered an IC50 under setting [1] of 100 to 1000 nM. `Cn1cc(Nc2nc(NC3CC3)c3occc3n2)cn1` [B.1.10] had an IC50 under setting [1] of 100 to 1000 nM. Same read-out and setting: in the case of `O=C1CCc2cc(Nc3nc(NC4CC4)c4occc4n3)ccc2N1` [B.1.11] it was 100 to 1000 nM; in that of `NC(=O)[C@H]1CCCN1c1nc(Nc2ccc(S(N)(=O)=O)cc2)nc2ccoc12` [B.2.1], over 10000 nM; in that of `NC(=O)C1CCN(c2nc(Nc3ccc(S(N)(=O)=O)cc3)nc3ccoc23)CC1` [B.2.2], 1000 to 10000 nM. Still for that read-out and setting: the value for `NC(=O)[C@@H]1CCCN1c1nc(Nc2ccc(S(N)(=O)=O)cc2)nc2ccoc12` [B.2.3] was over 10000 nM. The same measure, in the same setting: in the case of `NC(=O)C1CCCN(c2nc(Nc3ccc(S(N)(=O)=O)cc3)nc3ccoc23)C1` (stereo not shown) [B.2.4] it was 100 to 1000 nM; in that of `NS(=O)(=O)c1ccc(Nc2nc(NC3CCC3)c3occc3n2)cc1` [B.2.5], 100 to 1000 nM; in that of `NS(=O)(=O)c1ccc(Nc2nc(N3CCC(CO)CC3)c3occc3n2)cc1` [B.2.6], 1000 to 10000 nM.

With `NC(=O)[C@@H]1CCC[C@@H]1Nc1nc(Nc2ccc(S(N)(=O)=O)cc2)nc2ccoc12` [B.2.7], the IC50 under setting [1] fell in the range of 1000 to 10000 nM. Still for that read-out and setting: in the case of `CS(=O)(=O)N1CCN(c2nc(Nc3ccc(S(N)(=O)=O)cc3)nc3ccoc23)CC1` [B.2.8] it was 1000 to 10000 nM. The same measure, in the same setting: the value for `CC(=O)N1CCN(c2nc(Nc3ccc(S(N)(=O)=O)cc3)nc3ccoc23)CC1` [B.2.9] was over 10000 nM; that for `NC(=O)[C@H]1[C@@H](Nc2nc(Nc3ccc(S(N)(=O)=O)cc3)nc3ccoc23)[C@@H]2C=C[C@H]1C2` [B.2.10] was under 100 nM. Still for that read-out and setting: in the case of `CC(=O)N1CCN(c2nc(Nc3ccc(S(C)(=O)=O)cc3)nc3ccoc23)CC1` [B.3.1] it was 1000 to 10000 nM; in that of `CC(=O)N(C)c1ccc(Nc2nc(NC3CCC3)c3occc3n2)cc1` [B.5.1], 100 to 1000 nM; in that of `Clc1cc(Nc2nc(NC3CCC3)c3occc3n2)ccc1N1CCOCC1` [B.5.2], under 100 nM. As for `CCCC(=O)Nc1ccc(Nc2nc(NC3CCC3)c3occc3n2)cc1` [B.5.3], under setting [1], the IC50 lay in the range of 1000 to 10000 nM. On the same count and under the same terms, in the case of `CC(=O)N(C)c1ccc(Nc2nc(NC3CC3)c3occc3n2)cc1` [B.5.4] it was 100 to 1000 nM; in that of `O=C1CCc2cc(Nc3nc(NC4CCC4)c4occc4n3)ccc2N1` [B.5.5], 100 to 1000 nM. As to `CC1(C)Oc2ccc(Nc3nc(NC4CCC4)c4occc4n3)cc2NC1=O` [B.5.6], the IC50 under setting [2] lay within 100 to 1000 nM. The compound `O=C1COc2ccc(Nc3nc(NC4CC4)c4occc4n3)cc2N1` [B.5.7] gave an IC50 under setting [1] of 100 to 1000 nM. Still for that read-out and setting: in the case of `Cn1ncc2cc(Nc3nc(NC4CC4)c4occc4n3)ccc21` [B.5.8] it was under 100 nM. As for `COCCCNC(=O)c1ccc(Nc2nc(NC3CC3)c3occc3n2)cc1` [B.5.9], under setting [1], the half-inhibitory concentration (IC50) lay within 100 to 1000 nM. For `COCCCNS(=O)(=O)c1ccc(Nc2nc(NC3CC3)c3occc3n2)cc1` [B.5.10], the IC50 under setting [1] lay in the range of 100 to 1000 nM. Same read-out and setting: in the case of `Cn1ncc2ccc(Nc3nc(NC4CC4)c4occc4n3)cc21` [B.5.12] it was 100 to 1000 nM. Same read-out and setting: in the case of `FC(F)(F)CNc1nc(Nc2ccc(N3CCOCC3)c(Cl)c2)nc2ccoc12` [B.5.13] it was under 100 nM.

For the compound `CC1(C)Oc2ccc(Nc3nc(N4CCC(CNCC(F)F)CC4)c4occc4n3)cc2NC1=O` [B.5.14], the IC50 under setting [2] is 100 to 1000 nM. Turning to `CC(C)n1ncc2cc(Nc3nc(NC4CC4)c4occc4n3)ccc21` [B.5.15], under setting [1], the IC50 was in the range of 100 to 1000 nM.

With `CC1(C)Oc2ccc(Nc3nc(N4CCc5ccccc5C4)c4occc4n3)cc2NC1=O` [B.5.16], the IC50 under setting [2] was in the range of 100 to 1000 nM.

`c1cc2nc(Nc3ccc(N4CCOCC4)cc3)nc(NC3CC3)c2o1` [B.5.18]: the concentration for half-maximal inhibition (IC50) under setting [1] fell in the range of 100 to 1000 nM. Compound `O=c1[nH]c2ccc(Nc3nc(NC4CC4)c4occc4n3)cc2o1` [B.5.19] showed an IC50 under setting [1] of 100 to 1000 nM.

Take `O=c1[nH]c2ccc(Nc3nc(NC4CC4)c4occc4n3)cc2[nH]1` [B.5.20]: the IC50 under setting [1] lay within 100 to 1000 nM. `O=C1CCc2cc(Nc3nc(NC4CC4)c4occc4n3)ccc21` [B.5.21]: the half-inhibitory concentration (IC50) under setting [1] was 100 to 1000 nM. Compound `CC(=O)N(C)c1ccc(Nc2nc(N3CCC(CNCC(F)F)CC3)c3occc3n2)cc1` [B.5.22] registered an IC50 under setting [1] of 100 to 1000 nM. On to `CC(=O)Nc1cccc(Nc2nc(NC3CC3)c3occc3n2)c1` [B.5.23], for which the IC50 under setting [1] lay in the range of 100 to 1000 nM. `NS(=O)(=O)c1cccc(Nc2nc(NC3CC3)c3occc3n2)c1` [B.5.24] registered an IC50 under setting [1] of 100 to 1000 nM. On the same count and under the same terms, the value for `O=c1[nH]c2cc(Nc3nc(NC4CC4)c4occc4n3)ccc2o1` [B.5.25] was 100 to 1000 nM; that for `Cn1c(=O)[nH]c2cc(Nc3nc(NC4CC4)c4occc4n3)ccc21` [B.5.26] was 100 to 1000 nM.

On to `O=C1Cc2ccc(Nc3nc(NC4CC4)c4occc4n3)cc2N1` [B.5.28], for which the IC50 under setting [1] fell in the range of 100 to 1000 nM. Take `OCc1cccc(Nc2nc(NC3CC3)c3occc3n2)c1` [B.5.29]: under setting [1], the IC50 is 100 to 1000 nM. On the same count and under the same terms, in the case of `c1cc2nc(Nc3ccc(N4CCOCC4)nc3)nc(NC3CC3)c2o1` [B.5.30] it was 100 to 1000 nM; in that of `CC1(C)Sc2ccc(Nc3nc(NC4CC4)c4occc4n3)cc2NC1=O` [B.5.31], under 100 nM; in that of `O=S1(=O)CCN(c2ccc(Nc3nc(NC4CC4)c4occc4n3)cc2)CC1` [B.5.32], under 100 nM. On to `CC1(C)Oc2ccc(Nc3nc(NCC4CC4)c4occc4n3)cc2NC1=O` [B.5.33], for which, under setting [2], the IC50 fell in the range of 100 to 1000 nM. In the case of `CN1CCN(c2ccc(Nc3nc(NC4CC4)c4occc4n3)cc2F)CC1` [B.5.34], the IC50 under setting [1] lay within 100 to 1000 nM. Still for that read-out and setting: the value for `Cc1cc(=O)[nH]c2cc(Nc3nc(NC4CC4)c4occc4n3)ccc12` [B.5.35] was under 100 nM; that for `O=c1ccc2ccc(Nc3nc(NC4CC4)c4occc4n3)cc2[nH]1` [B.5.36] was under 100 nM. On to `CC1(Nc2nc(Nc3ccc4c(c3)NC(=O)C(C)(C)O4)nc3ccoc23)CC1` [B.5.37], for which the IC50 under setting [2] lay in the range of 100 to 1000 nM. Still for that read-out and setting: in the case of `CC1(C)Oc2ccc(Nc3nc(NC4(CO)CC4)c4occc4n3)cc2NC1=O` [B.5.38] it was 100 to 1000 nM. On the same count and under the same terms, in the case of `CCNc1nc(Nc2ccc3c(c2)NC(=O)C(C)(C)O3)nc2ccoc12` [B.5.39] it was 100 to 1000 nM.

Turning to `O=C1Nc2cc(Nc3nc(NC4CC4)c4occc4n3)ccc2OC1(F)F` [B.5.40], the IC50 under setting [1] was under 100 nM. Turning to `CC1(C)Cc2ccc(Nc3nc(NC4CC4)c4occc4n3)cc2NC1=O` [B.5.41], the IC50 under setting [1] was under 100 nM. Still for that read-out and setting: the value for `CC(C)(C#N)c1ccc(Nc2nc(NC3CC3)c3occc3n2)cc1` [B.5.42] was under 100 nM; that for `CC(C)Oc1ccc(Nc2nc(NC3CC3)c3occc3n2)cc1` [B.5.43] was 100 to 1000 nM; that for `Cc1nc2ccc(Nc3nc(NC4CC4)c4occc4n3)cc2s1` [B.5.44] was 100 to 1000 nM.

In the case of `Cc1ccc2cc(Nc3nc(NC4CC4)c4occc4n3)ccc2n1` [B.5.45], the IC50 under setting [1] fell in the range of 100 to 1000 nM. In the case of `Cc1cc(Nc2nc(NC3CC3)c3occc3n2)ccc1OC(C)C` [B.5.46], the IC50 under setting [1] is 100 to 1000 nM. Under setting [1], `CC(C)Oc1ccc(Nc2nc(NC3CC3)c3occc3n2)cc1Cl` [B.5.47] showed an IC50 of 100 to 1000 nM. Regarding `CC(C)Oc1ccc(Nc2nc(NC3CC3)c3occc3n2)cc1F` [B.5.48], the IC50 under setting [1] lay within 100 to 1000 nM. The same measure, in the same setting: the value for `CC1(C)CNc2cc(Nc3nc(NC4CC4)c4occc4n3)ccc2O1` [B.5.49] was 100 to 1000 nM; that for `O=c1[nH]c2cc(Nc3nc(NC4CC4)c4occc4n3)ccc2cc1CO` [B.5.50] was 100 to 1000 nM; that for `CC1(C)CCc2cc(Nc3nc(NC4CC4)c4occc4n3)ccc2O1` [B.5.51] was 100 to 1000 nM. Same read-out and setting: the value for `O=c1ccc2ccc(Nc3nc(NC4CC4)c4occc4n3)cc2o1` [B.5.52] was under 100 nM; that for `c1cc2nc(Nc3ccc4c(c3)OCCO4)nc(NC3CC3)c2o1` [B.5.53] was 100 to 1000 nM. `c1nc2ccc(Nc3nc(NC4CC4)c4occc4n3)cc2o1` [B.5.54] came in with an IC50 under setting [1] of 100 to 1000 nM. On the same count and under the same terms, in the case of `c1cnn(-c2ccc(Nc3nc(NC4CC4)c4occc4n3)cc2)n1` [B.5.55] it was 100 to 1000 nM. Same read-out and setting: the value for `O=C1CCCc2cc(Nc3nc(NC4CC4)c4occc4n3)ccc2N1` [B.5.56] was under 100 nM; that for `CC(=O)N1CCc2ccc(Nc3nc(NC4CC4)c4occc4n3)cc2CC1` [B.5.57] was 100 to 1000 nM. `CNc1nc(Nc2ccc3c(c2)NC(=O)C(C)(C)O3)nc2ccoc12` [B.5.58]: the IC50 under setting [2] was 100 to 1000 nM. Still for that read-out and setting: the value for `CC(C)Nc1nc(Nc2ccc3c(c2)NC(=O)C(C)(C)O3)nc2ccoc12` [B.5.59] was 100 to 1000 nM.
